This is one part of the list. The list includes weakly bound sequences.
What follows are sequences tested against T1, MBP-FoxP3dN (UniProt Q99JB6) (assay: PD-seq (MBP pull-down with sequencing)). Settings: 20 mM Tris-HCl pH 7.5, 100 mM NaCl, 1.5 mM MgCl2, 0.4 uM protein, 0.1 uM dsDNA library, 30 min, room temperature, amylose pull-down; high values mean tight binding; double strand, one strand shown.
T1 sequence: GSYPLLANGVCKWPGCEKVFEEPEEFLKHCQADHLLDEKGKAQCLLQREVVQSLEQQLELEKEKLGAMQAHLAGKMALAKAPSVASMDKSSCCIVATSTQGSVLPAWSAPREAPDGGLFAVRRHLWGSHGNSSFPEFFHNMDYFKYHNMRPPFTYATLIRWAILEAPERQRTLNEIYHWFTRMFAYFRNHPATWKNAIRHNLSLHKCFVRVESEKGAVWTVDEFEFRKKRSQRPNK

Sequence	binding signal (RPM ratio (pull-down/input))
GATGATTGTTCTCCCAGCTGATGAATTCATCCCCTCGAGTAAACAAATTTTCCTAATCTTTCTGTTCAAGCGCCATCTAC	0.434
GATGATTGTTCTCCCAGCTGATGAATTGGCCACATCGAGTAAACAAATTTTCCTAATCTTTCTGTTCAAGCGCCATCTAC	0.924
GATGATTGTTCTCCCAGCTGATGAATTTACAAGATCGAGTAAACAAATTTTCCTAATCTTTCTGTTCAAGCGCCATCTAC	0.326
GATGATTGTTCTCCCAGCTGATGAATTCAGTGTGTCGAGTAAACAAATTTTCCTAATCTTTCTGTTCAAGCGCCATCTAC	2.18
GATGATTGTTCTCCCAGCTGATGAATTGCTCGGTTCGAGTAAACAAATTTTCCTAATCTTTCTGTTCAAGCGCCATCTAC	0.438
GATGATTGTTCTCCCAGCTGATGAATTATAGCTATCGAGTAAACAAATTTTCCTAATCTTTCTGTTCAAGCGCCATCTAC	0.813
GATGATTGTTCTCCCAGCTGATGAATTCGCAAGATCGAGTAAACAAATTTTCCTAATCTTTCTGTTCAAGCGCCATCTAC	0.339
GATGATTGTTCTCCCAGCTGATGAATTACCGGGATCGAGTAAACAAATTTTCCTAATCTTTCTGTTCAAGCGCCATCTAC	0.214
GATGATTGTTCTCCCAGCTGATGAATTCCGATCGTCGAGTAAACAAATTTTCCTAATCTTTCTGTTCAAGCGCCATCTAC	0.375
GATGATTGTTCTCCCAGCTGATGAATTTACACTATCGAGTAAACAAATTTTCCTAATCTTTCTGTTCAAGCGCCATCTAC	0.996
GATGATTGTTCTCCCAGCTGATGAATTTCTCTCCTCGAGTAAACAAATTTTCCTAATCTTTCTGTTCAAGCGCCATCTAC	0.213
GATGATTGTTCTCCCAGCTGATGAATTTTGATGTTCGAGTAAACAAATTTTCCTAATCTTTCTGTTCAAGCGCCATCTAC	3.91
GATGATTGTTCTCCCAGCTGATGAATTCCGTTTCTCGAGTAAACAAATTTTCCTAATCTTTCTGTTCAAGCGCCATCTAC	1.2
GATGATTGTTCTCCCAGCTGATGAATTAGTCTCGTCGAGTAAACAAATTTTCCTAATCTTTCTGTTCAAGCGCCATCTAC	0.55
GATGATTGTTCTCCCAGCTGATGAATTGATCTTCTCGAGTAAACAAATTTTCCTAATCTTTCTGTTCAAGCGCCATCTAC	0.314
GATGATTGTTCTCCCAGCTGATGAATTAGTGGCCTCGAGTAAACAAATTTTCCTAATCTTTCTGTTCAAGCGCCATCTAC	1.26
GATGATTGTTCTCCCAGCTGATGAATTAACCAGCTCGAGTAAACAAATTTTCCTAATCTTTCTGTTCAAGCGCCATCTAC	0.22
GATGATTGTTCTCCCAGCTGATGAATTCGCGGAATCGAGTAAACAAATTTTCCTAATCTTTCTGTTCAAGCGCCATCTAC	0.216
GATGATTGTTCTCCCAGCTGATGAATTATGCTGTTCGAGTAAACAAATTTTCCTAATCTTTCTGTTCAAGCGCCATCTAC	3.42
GATGATTGTTCTCCCAGCTGATGAATTTACCATCTCGAGTAAACAAATTTTCCTAATCTTTCTGTTCAAGCGCCATCTAC	0.738
GATGATTGTTCTCCCAGCTGATGAATTTAAGCGGTCGAGTAAACAAATTTTCCTAATCTTTCTGTTCAAGCGCCATCTAC	0.297

Sequence	binding signal (RPM ratio (pull-down/input))
GATGATTGTTCTCCCAGCTGATGAATTTCGTAGCTCGAGTAAACAAATTTTCCTAATCTTTCTGTTCAAGCGCCATCTAC	0.705
GATGATTGTTCTCCCAGCTGATGAATTTTCTCGCTCGAGTAAACAAATTTTCCTAATCTTTCTGTTCAAGCGCCATCTAC	0.241
GATGATTGTTCTCCCAGCTGATGAATTTTTCGCATCGAGTAAACAAATTTTCCTAATCTTTCTGTTCAAGCGCCATCTAC	0.898
GATGATTGTTCTCCCAGCTGATGAATTTGCACGTTCGAGTAAACAAATTTTCCTAATCTTTCTGTTCAAGCGCCATCTAC	0.786
GATGATTGTTCTCCCAGCTGATGAATTACGAAGATCGAGTAAACAAATTTTCCTAATCTTTCTGTTCAAGCGCCATCTAC	0.266
GATGATTGTTCTCCCAGCTGATGAATTGAAAACTTCGAGTAAACAAATTTTCCTAATCTTTCTGTTCAAGCGCCATCTAC	0.334
GATGATTGTTCTCCCAGCTGATGAATTTTTTATGTCGAGTAAACAAATTTTCCTAATCTTTCTGTTCAAGCGCCATCTAC	0.31
GATGATTGTTCTCCCAGCTGATGAATTCTGATATTCGAGTAAACAAATTTTCCTAATCTTTCTGTTCAAGCGCCATCTAC	2.13
GATGATTGTTCTCCCAGCTGATGAATTCTACCCTTCGAGTAAACAAATTTTCCTAATCTTTCTGTTCAAGCGCCATCTAC	0.298
GATGATTGTTCTCCCAGCTGATGAATTCAACATCTCGAGTAAACAAATTTTCCTAATCTTTCTGTTCAAGCGCCATCTAC	0.716
GATGATTGTTCTCCCAGCTGATGAATTCCCTGATTCGAGTAAACAAATTTTCCTAATCTTTCTGTTCAAGCGCCATCTAC	0.239
GATGATTGTTCTCCCAGCTGATGAATTGAATCTGTCGAGTAAACAAATTTTCCTAATCTTTCTGTTCAAGCGCCATCTAC	0.323
GATGATTGTTCTCCCAGCTGATGAATTCGCCTAATCGAGTAAACAAATTTTCCTAATCTTTCTGTTCAAGCGCCATCTAC	0.346
GATGATTGTTCTCCCAGCTGATGAATTCGTACGATCGAGTAAACAAATTTTCCTAATCTTTCTGTTCAAGCGCCATCTAC	0.333
GATGATTGTTCTCCCAGCTGATGAATTCACCCTGTCGAGTAAACAAATTTTCCTAATCTTTCTGTTCAAGCGCCATCTAC	0.257
GATGATTGTTCTCCCAGCTGATGAATTAGTAACTTCGAGTAAACAAATTTTCCTAATCTTTCTGTTCAAGCGCCATCTAC	0.664
GATGATTGTTCTCCCAGCTGATGAATTGTCTTGGTCGAGTAAACAAATTTTCCTAATCTTTCTGTTCAAGCGCCATCTAC	0.404
GATGATTGTTCTCCCAGCTGATGAATTAGATCGTTCGAGTAAACAAATTTTCCTAATCTTTCTGTTCAAGCGCCATCTAC	0.405
GATGATTGTTCTCCCAGCTGATGAATTGGTGCTGTCGAGTAAACAAATTTTCCTAATCTTTCTGTTCAAGCGCCATCTAC	0.636
GATGATTGTTCTCCCAGCTGATGAATTTGAGAGTTCGAGTAAACAAATTTTCCTAATCTTTCTGTTCAAGCGCCATCTAC	0.59
GATGATTGTTCTCCCAGCTGATGAATTGCCGGGCTCGAGTAAACAAATTTTCCTAATCTTTCTGTTCAAGCGCCATCTAC	0.363

Sequence	binding signal (RPM ratio (pull-down/input))
GATGATTGTTCTCCCAGCTGATGAATTAGACCTCTCGAGTAAACAAATTTTCCTAATCTTTCTGTTCAAGCGCCATCTAC	0.389
GATGATTGTTCTCCCAGCTGATGAATTATACCCGTCGAGTAAACAAATTTTCCTAATCTTTCTGTTCAAGCGCCATCTAC	0.302
GATGATTGTTCTCCCAGCTGATGAATTGCAGCCATCGAGTAAACAAATTTTCCTAATCTTTCTGTTCAAGCGCCATCTAC	1.97
GATGATTGTTCTCCCAGCTGATGAATTCTATACATCGAGTAAACAAATTTTCCTAATCTTTCTGTTCAAGCGCCATCTAC	0.559
GATGATTGTTCTCCCAGCTGATGAATTCTCGTCCTCGAGTAAACAAATTTTCCTAATCTTTCTGTTCAAGCGCCATCTAC	0.286
GATGATTGTTCTCCCAGCTGATGAATTTAACCTATCGAGTAAACAAATTTTCCTAATCTTTCTGTTCAAGCGCCATCTAC	0.345
GATGATTGTTCTCCCAGCTGATGAATTGAGAACCTCGAGTAAACAAATTTTCCTAATCTTTCTGTTCAAGCGCCATCTAC	0.261
GATGATTGTTCTCCCAGCTGATGAATTATTATGATCGAGTAAACAAATTTTCCTAATCTTTCTGTTCAAGCGCCATCTAC	1.24
GATGATTGTTCTCCCAGCTGATGAATTGGGTACCTCGAGTAAACAAATTTTCCTAATCTTTCTGTTCAAGCGCCATCTAC	0.484
GATGATTGTTCTCCCAGCTGATGAATTGTCGGATTCGAGTAAACAAATTTTCCTAATCTTTCTGTTCAAGCGCCATCTAC	0.308
GATGATTGTTCTCCCAGCTGATGAATTGTTAGTTTCGAGTAAACAAATTTTCCTAATCTTTCTGTTCAAGCGCCATCTAC	4.23
GATGATTGTTCTCCCAGCTGATGAATTCGTGTGCTCGAGTAAACAAATTTTCCTAATCTTTCTGTTCAAGCGCCATCTAC	1.35
GATGATTGTTCTCCCAGCTGATGAATTTCGCCTATCGAGTAAACAAATTTTCCTAATCTTTCTGTTCAAGCGCCATCTAC	2.53
GATGATTGTTCTCCCAGCTGATGAATTTCAATAGTCGAGTAAACAAATTTTCCTAATCTTTCTGTTCAAGCGCCATCTAC	0.581
GATGATTGTTCTCCCAGCTGATGAATTCCAAACCTCGAGTAAACAAATTTTCCTAATCTTTCTGTTCAAGCGCCATCTAC	0.274
GATGATTGTTCTCCCAGCTGATGAATTAGGCAAATCGAGTAAACAAATTTTCCTAATCTTTCTGTTCAAGCGCCATCTAC	0.601
GATGATTGTTCTCCCAGCTGATGAATTGATCGGCTCGAGTAAACAAATTTTCCTAATCTTTCTGTTCAAGCGCCATCTAC	0.212
GATGATTGTTCTCCCAGCTGATGAATTATGTAAATCGAGTAAACAAATTTTCCTAATCTTTCTGTTCAAGCGCCATCTAC	0.88
GATGATTGTTCTCCCAGCTGATGAATTAGACAACTCGAGTAAACAAATTTTCCTAATCTTTCTGTTCAAGCGCCATCTAC	0.585
GATGATTGTTCTCCCAGCTGATGAATTGCAACGGTCGAGTAAACAAATTTTCCTAATCTTTCTGTTCAAGCGCCATCTAC	0.994
GATGATTGTTCTCCCAGCTGATGAATTTGCCCAATCGAGTAAACAAATTTTCCTAATCTTTCTGTTCAAGCGCCATCTAC	0.469
